{"source": "PubChem BioAssay AID588342", "about": "(National Center for Advancing Translational Sciences (NCATS), 2011)", "note": "The campaign covered roughly 360,000 compounds. About 25,000 (6.9%) were called active. The inconclusive results got no clear call from the source; some entries with a clear call stand among them for comparison. The call rests on the fitted dose curve; in most records, active means well fitted inhibition curve with a large enough effect; inconclusive means small, poorly fitted or top-dose-only effect; inactive means flat fitted curve, though single readings scatter. Potencies beside an inconclusive call are fits to weak or partial responses and may not hold up. Potency means the concentration at half of the fitted maximal effect; tags describe the fitted curve by direction and shape."}
{"biological_target": "Luciferin 4-monooxygenase (Photinus pyralis) (UniProt P08659)", "sequence (P08659 whole entry, looked up)": "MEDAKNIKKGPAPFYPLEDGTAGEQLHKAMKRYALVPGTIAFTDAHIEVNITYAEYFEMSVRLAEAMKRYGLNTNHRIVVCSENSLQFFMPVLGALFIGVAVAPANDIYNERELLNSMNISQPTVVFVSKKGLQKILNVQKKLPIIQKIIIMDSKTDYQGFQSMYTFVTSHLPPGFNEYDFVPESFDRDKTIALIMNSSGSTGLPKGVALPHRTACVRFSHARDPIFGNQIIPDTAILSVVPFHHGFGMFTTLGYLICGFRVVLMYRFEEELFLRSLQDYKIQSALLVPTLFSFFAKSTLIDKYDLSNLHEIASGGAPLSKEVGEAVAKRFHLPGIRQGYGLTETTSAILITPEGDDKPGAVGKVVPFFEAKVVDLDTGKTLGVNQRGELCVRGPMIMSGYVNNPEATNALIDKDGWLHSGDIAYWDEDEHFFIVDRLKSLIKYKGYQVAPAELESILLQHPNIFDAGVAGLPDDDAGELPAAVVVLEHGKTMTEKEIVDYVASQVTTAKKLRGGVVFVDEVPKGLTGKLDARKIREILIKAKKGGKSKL", "test": "qHTS profiling assay for firefly luciferase inhibitor/activator using purifed enzyme and Km concentrations of substrates (counterscreen for miR-21 project); further: nearly all actives have a fitted effect of over 55% in size;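 on activity change, negative = inhibition: plate controls were vehicle for no effect and reference inhibitor for full effect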", "conditions": "purified FLuc, luminescence inhibition; activity change, negative = inhibition: at 57.5 µM (top of the series)", "in_short": "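Biochemical qHTS of compounds, final roughly 60 µM downward over six points, against 10 nM purified firefly luciferase using Km concentrations of substrates (10 uM D-luciferin, 10 uM ATP) in Tris acetate pH 7.5 buffer; luminescence output.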"}
{"smiles": "CCN(CC)c1ccc2cc(-c3nc(-c4ccc(Cl)cc4Cl)cs3)c(=O)oc2c1", "activity change, negative = inhibition": "inactive: -0.605%"}
{"smiles": "O=C(CN1CCc2ccccc21)Nc1ccc2c(c1)OCCCO2", "Potency": "active: 12 µM"}
{"smiles": "CCOC(=O)c1ccc(Nc2nc3nonc3nc2Nc2cccc(C)c2C)cc1", "Potency": "inconclusive: 12 µM [inhibitor, partial curve]"}
{"smiles": "Cc1c(-c2ccccn2)c(=O)[nH]n1-c1ccc(F)cc1", "Potency": "active: 3.01 µM"}
{"smiles": "Cc1ccc(N(CC(=O)NC2CCCCC2)C(=O)CCC(=O)Nc2nccs2)cc1", "activity change, negative = inhibition": "inactive: 0.633%"}
{"smiles": "Oc1ccc2ccccc2c1/C=N/Nc1nnc(-c2ncc[nH]2)c2ccccc12", "Potency": "active: 3.38 µM"}
{"smiles": "CSc1ccc(NC(=O)N2CC=C(n3c(=O)[nH]c4ccccc43)CC2)cc1", "Potency": "inconclusive: 26.9 µM [inhibitor, single point]"}
{"smiles": "CCOC(=O)c1ccc(-n2c(CN(CC)CC)nc3ccc([N+](=O)[O-])cc3c2=O)cc1", "Potency": "inconclusive: 37.9 µM [inhibitor, partial curve, poor fit]"}
{"smiles": "CC(=C/c1ccccc1)/C=N/NC(=O)c1cnccn1", "Potency": "active: 4.78 µM"}
{"smiles": "O=C(Nc1cccc(Cl)c1)NC1CCCCC1", "Potency": "inconclusive: 23.9 µM [inhibitor, single point]"}
{"smiles": "Cc1ccc(C(=O)OCc2cc(=O)n3nc(-c4cccs4)sc3n2)cc1", "activity change, negative = inhibition": "inactive: -1.73%"}
{"smiles": "Cc1ccccc1C(=O)OCc1cc(=O)n2nc(C3CC3)sc2n1", "Potency": "inconclusive: 19 µM [inhibitor, partial curve]"}
{"smiles": "CCOC(=O)c1c(S(=O)(=O)NCC(=O)Nc2cc(C)ccc2OC)c(C)n(C)c1C", "Potency": "inactive"}
{"smiles": "O=C(CSc1nc2ccccc2c(=O)[nH]1)Nc1ccc(S(=O)(=O)N2CCCC2)cc1", "Potency": "inconclusive: 26.9 µM [inhibitor, partial curve]"}
{"smiles": "COc1ccc2nc(NC(=O)C3CC(=O)N(c4ccc5c(c4)OCCO5)C3)sc2c1", "note": "(stereo not drawn)", "Potency": "inconclusive: 37.9 µM [inhibitor, partial curve, poor fit]"}
{"smiles": "CCCc1nn2c(=O)cc(COC(=O)c3cccs3)nc2s1", "Potency": "active: 26.9 µM"}
{"smiles": "COc1ccc(Cl)cc1NC(=O)CN(C)C(C)C(=O)NCC1CCCCC1", "note": "(stereo not drawn)", "activity change, negative = inhibition": "inactive: 3.99%"}
{"smiles": "COc1ccc(/C=C(\\NC(=O)c2ccc(Cl)cc2)C(=O)NCCCn2ccnc2)cc1OC", "activity change, negative = inhibition": "inactive: 0.6%"}
{"smiles": "CCOc1ccc(C(=O)CSc2nc3cc(C(=O)NC4CCCC4)ccc3c(=O)n2CC2CCCO2)cc1", "note": "(stereo not drawn)", "activity change, negative = inhibition": "inactive: -0.62%"}
{"smiles": "O=C(COc1cc2oc(=O)c3c(c2cc1Cl)CCC3)Nc1cccnc1", "Potency": "inconclusive: 7.57 µM [inhibitor, partial curve, poor fit]"}
{"smiles": "Cc1cc(-n2nnc3ccccc32)nc2ccccc12", "activity change, negative = inhibition": "inactive: -10.5%"}
{"smiles": "COc1ccccc1C(=O)N1CCCCC1CCN1CCOCC1", "note": "(stereo not drawn)", "activity change, negative = inhibition": "inactive: -0.156%"}
{"smiles": "Cc1ccc(-c2nc3cc(N)ccc3o2)cc1Br", "Potency": "active: 1.9 µM"}
{"smiles": "COc1ccc(C2CC2/C(=N/O)c2ccccn2)cc1", "note": "(stereo not drawn)", "Potency": "inconclusive: 37.9 µM [inhibitor, partial curve, poor fit]"}
{"smiles": "CCCCNC(=O)c1onc(CSc2ccc(C(C)C)cc2)c1C(=O)O", "Potency": "inconclusive: 33.8 µM [inhibitor, partial curve, poor fit]"}
{"smiles": "CCn1ncc(Br)c1C(=O)Nc1ncc(C)s1", "Potency": "inconclusive: 37.9 µM [inhibitor, partial curve, poor fit]"}
{"smiles": "O=c1oc2ccccc2c(Nc2ccc(F)cc2)c1[N+](=O)[O-]", "Potency": "inconclusive: 19 µM [inhibitor, partial curve, poor fit]"}
{"smiles": "COc1ccc(O)c(C(=O)/C=C/c2cc3ccccc3o2)c1", "Potency": "inconclusive: 30.1 µM [inhibitor, partial curve, poor fit]"}
{"smiles": "Nc1ccc2nc(-c3cc(Cl)c(N)c(Cl)c3)[nH]c2c1", "Potency": "active: 6.01 µM"}
{"smiles": "Brc1ccc(-c2csc(Nc3nc(-c4ccc(Br)cc4)cs3)n2)cc1", "Potency": "inconclusive: 26.9 µM [inhibitor, partial curve, poor fit]"}
{"smiles": "CCOC(=O)CNC(=O)CSc1ccc(-c2nc3ccccc3[nH]2)cn1", "Potency": "inconclusive: 26.9 µM [inhibitor, partial curve, poor fit]"}
{"smiles": "CCCCS(=O)CC(O)COc1ccc(C(C)(C)C)cc1", "note": "(stereo not drawn)", "Potency": "inconclusive: 23.9 µM [inhibitor, partial curve, poor fit]"}
{"smiles": "S=c1[nH]nc(-c2ccc(Cl)cc2Cl)n1-c1ccc2c(c1)OCCO2", "Potency": "inconclusive: 37.9 µM [inhibitor, single point]"}
{"smiles": "O=C1/C(=C\\c2ccncc2)CCc2ccccc21", "Potency": "active: 9.53 µM"}
{"smiles": "Cc1nn(CCOc2ccccc2)c(=O)n1-c1ccccc1F", "Potency": "inconclusive: 23.9 µM [inhibitor, single point]"}
{"smiles": "O=C(CC(c1ccco1)S(=O)(=O)c1ccccc1)c1ccc(F)cc1", "note": "(stereo not drawn)", "Potency": "active: 19 µM"}
{"smiles": "Cc1oc(=O)c(NC(=O)c2cccc(Cl)c2)cc1C(=O)c1ccccc1", "Potency": "inconclusive: 30.1 µM [inhibitor, single point]"}
{"smiles": "COc1ccc(-c2csc(-c3nc(-c4ccc(Br)s4)cs3)n2)cc1F", "activity change, negative = inhibition": "inactive: -4.76%"}
{"smiles": "O=C(CNc1ccc(F)cc1)N/N=C/c1c(O)ccc2ccccc12", "activity change, negative = inhibition": "inactive: -15.9%"}
{"smiles": "COc1ccccc1C(=O)NCc1nnnn1-c1ccc(C)c(C)c1", "activity change, negative = inhibition": "inactive: -7.71%"}
{"smiles": "Clc1nc2ccccc2nc1-c1ccccc1", "Potency": "inconclusive: 19 µM [inhibitor, partial curve, poor fit]"}
{"smiles": "CCOC(=O)COc1nc(-c2ccco2)cc(-c2ccco2)c1C#N", "Potency": "inconclusive: 30.1 µM [inhibitor, partial curve, poor fit]"}
{"smiles": "O=C(Nc1cccc(NC(=O)c2cccc([N+](=O)[O-])c2)n1)c1cccc([N+](=O)[O-])c1", "activity change, negative = inhibition": "inactive: -12.9%"}
{"smiles": "Cc1ccc(NC(=O)C2CCN(C(=O)[C@@H]3Cc4ccccc4CN3)CC2)cc1", "Potency": "inconclusive: 30.1 µM [inhibitor, partial curve, poor fit]"}
{"smiles": "Cc1ccc(-c2nc3c(C)cccn3c2Nc2ccccc2C)s1", "Potency": "inconclusive: 37.9 µM [inhibitor, single point]"}
{"smiles": "O=C(NC(=O)c1ccc(Cl)cc1)OC1CCCCC1", "Potency": "inconclusive: 19 µM [inhibitor, single point]"}
{"smiles": "COc1ccc(NC(=O)CSc2nc3cccnc3n2C)cc1", "Potency": "inconclusive: 21.3 µM [inhibitor, partial curve, poor fit]"}
{"smiles": "Cc1ccccc1-n1c(SCC(N)=O)nc2sc(-c3ccccc3)cc2c1=O", "activity change, negative = inhibition": "inactive: -7.39%"}
{"smiles": "O=c1[nH][nH]c(=S)n1C1CCCCC1", "Potency": "inconclusive: 23.9 µM [inhibitor, single point]"}
{"smiles": "COc1ccc(-c2nn(-c3ccccc3)cc2C(=O)NCC2CCCO2)cc1", "note": "(stereo not drawn)", "Potency": "inconclusive: 26.9 µM [inhibitor, partial curve, poor fit]"}
{"smiles": "COc1ccc(-c2c(C#N)c(N)nc3c2CCc2ccccc2-3)cc1OC", "Potency": "inconclusive: 19 µM [inhibitor, single point]"}
{"smiles": "Cc1c(Cl)cccc1NC(=O)C1CCCN(c2nnc(-n3c(C)ccc3C)s2)C1", "note": "(stereo not drawn)", "activity change, negative = inhibition": "inactive: 5.42%"}
{"smiles": "CCn1ccc(C(=O)Nc2ccc(Cl)cn2)n1", "Potency": "active: 19 µM"}
{"smiles": "COC(=O)C1(C)NC(c2ccc(C)cc2)C2C(=O)N(c3ccc(F)cc3)C(=O)C21", "note": "(stereo not drawn)", "activity change, negative = inhibition": "inactive: 0.287%"}
{"smiles": "COc1ccc(CNC(=O)Cn2c(=O)nc(-c3ccccc3F)c3cc(Cl)ccc32)cc1", "activity change, negative = inhibition": "inactive: 6.15%"}
{"smiles": "CC(C)c1ccccc1NC(=O)CSc1nnc(COc2ccccc2Cl)o1", "Potency": "inconclusive: 26.9 µM [inhibitor, partial curve]"}
{"smiles": "CCOC(=O)CN(C(=O)CSc1nnc2c(n1)[nH]c1ccc(OC)cc12)c1ccc(F)cc1", "Potency": "inconclusive: 37.9 µM [inhibitor, partial curve, poor fit]"}
{"smiles": "O=C(Nc1cccnc1)Nc1ccc(Cl)cc1Cl", "Potency": "inconclusive: 16.9 µM [inhibitor, partial curve]"}
{"smiles": "Cc1ccc(-c2ccc(CCC(=O)O)n2-c2ccc(C(C)C)cc2)cc1", "Potency": "inconclusive: 13.5 µM [inhibitor, partial curve]"}
{"smiles": "Cc1ccc(NC(=O)CSc2nnc(-c3ccccn3)n2N)c(Br)c1", "activity change, negative = inhibition": "inactive: 4.77%"}
{"smiles": "Cn1c(=N)n(CC(=O)c2ccc(Br)s2)c2ccccc21", "Potency": "active: 8.49 µM"}
{"smiles": "Cc1cccc(NC(=O)NCCCCc2ccccc2)c1", "Potency": "inconclusive: 26.9 µM [inhibitor, partial curve]"}
{"smiles": "CN1CCc2c(sc(NC(=O)c3ccc4ccccc4c3)c2C(N)=O)C1", "Potency": "active: 2.69 µM"}
{"smiles": "CC(C)c1ccc(/C=C2\\SC(=S)N(CC(=O)NCCCN3CCOCC3)C2=O)cc1", "Potency": "active: 1.35 µM"}
{"smiles": "CCN(CC(=O)NCc1ccc(Cl)cc1)C(=O)c1ccc2cc(OC)ccc2c1", "Potency": "inconclusive: 30.1 µM [inhibitor, partial curve, poor fit]"}
{"smiles": "Cc1ccc(CNc2nc3ccccc3n2C)o1", "Potency": "inconclusive: 26.9 µM [inhibitor, single point]"}
{"smiles": "Cc1cccnc1NC(=O)c1ccc(OCC2CCCO2)cc1", "note": "(stereo not drawn)", "Potency": "inconclusive: 23.9 µM [inhibitor, partial curve]"}
{"smiles": "COc1cc(NC(=O)N2CCN(c3cc(-c4noc(C)n4)ccc3C)CC2)cc(OC)c1OC", "activity change, negative = inhibition": "inactive: -6.5%"}
{"smiles": "CCOc1ccc2ccccc2c1/C=N/NC(=O)c1ccc(C)nc1", "Potency": "active: 4.78 µM"}
{"smiles": "ClCc1nnc(-c2cc3c(s2)CCCC3)o1", "Potency": "inconclusive: 26.9 µM [inhibitor, single point]"}
{"smiles": "CCOC(=O)C1(CCc2ccccc2)CCN(C(=O)C2=C(C)OCCO2)CC1", "Potency": "inconclusive: 23.9 µM [inhibitor, partial curve, poor fit]"}
{"smiles": "O=C(Nc1cccc(-n2cnnn2)c1)c1cc2ccccc2o1", "Potency": "inconclusive: 1.9 µM [inhibitor, partial curve]"}
{"smiles": "O=C(Nc1nnc(C(F)(F)F)s1)C1COc2ccccc2O1", "note": "(stereo not drawn)", "Potency": "inconclusive: 23.9 µM [inhibitor, single point]"}
